# Test results reported in PubChem BioAssay AID1240 (Sanford-Burnham Center for Chemical Genomics, 2008).
# Out of some 50,000 compounds screened, about 800 (1.6%) showed an effect of 50% or more. The list shows a part of the results.
# Molecular target: Bcl-2-like protein 10 (Homo sapiens) (UniProt Q9HD36)
# Assay: Phenotype converters, Bcl-B/TR3 peptide binding displacement, primary biochemical FP (AID 1240);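 note: 0% = Bcl-B with tracer peptide and DMSO and 100% = tracer peptide lacking Bcl-B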
# Conditions: GST-Bcl-B / FITC-TR3 peptide fluorescence polarization; stronger effect = higher value; compound at 3.75 mg/L
# Chain of UniProt Q9HD36 (Q9HD36 whole entry, looked up): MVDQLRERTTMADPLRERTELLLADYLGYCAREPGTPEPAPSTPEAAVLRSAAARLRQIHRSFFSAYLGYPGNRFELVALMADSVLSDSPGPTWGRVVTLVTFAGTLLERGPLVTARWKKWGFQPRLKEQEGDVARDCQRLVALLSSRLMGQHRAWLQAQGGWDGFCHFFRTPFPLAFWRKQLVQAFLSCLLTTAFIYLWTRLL
row,SMILES,displacement [%]
1,CCOC(=O)c1ccc(-c2ccc(C(=O)Nc3cccnc3)o2)cc1,-5.2
2,O=C1N=C(N=Nc2c(O)[nH]c3ccccc23)S/C1=C/c1ccc(Br)cc1,8.9
3,C=CCc1cccc2cc(C(=O)NNC(=O)c3ccc(OC)cc3)c(=O)oc12,-8.4
4,COc1ccc(/C=C/C(=O)Nc2nc(-c3ccccc3)cs2)cc1OC,11.7
5,COc1ccc(CNC(=O)C(=O)Nc2cccc(Cl)c2)cc1,16.4
6,COc1ccccc1NC(=O)C1=C(C)NC(SCC(=O)Nc2ccc(Br)cc2)=C(C#N)C1c1ccco1 (centres undefined),4.8
7,CCOCCOC(=O)c1ccc(NC(=O)c2cc(OC)c(OC)c(OC)c2Br)cc1,-6
8,O=C(Nc1nc(-c2ccc(Cl)cc2)cs1)C1CC2CCC1C2 (centres undefined),9.3
9,Cc1oc2ccc(O)c(CN(C)C)c2c1C(C)O (centres undefined),10
10,Cc1onc(-c2ccccc2Cl)c1C(=O)Nc1sc(C)c(C)c1C(=O)OC(C)C,-6.3
11,Cc1cc(N2CCN(C/C=C/c3ccccc3)CC2)n2c(nc3ccccc32)c1C#N,29.5
12,CCOc1cc(C2C3=C(CC(C)(C)CC3=O)OC3=C2C(=O)CC(C)(C)C3)ccc1OCc1ccccc1F,-8.4
13,CC(=O)NC1=C(Cl)C(=O)c2ccccc2C1=O,23
14,CCc1ccccc1NC(=O)COc1ccc(C)cc1,3.4
15,COc1ccc(NC(=O)c2ccccc2C)cc1OC,-3.5
16,Oc1ccc(-n2c(O)c(/C=C3\C=Nc4ccccc43)sc2=S)cc1,-23.8
17,CCCOC(=O)C1=C(C)N(CC)C(=O)NC1c1ccccc1[N+](=O)[O-] (centres undefined),-12.8
18,Oc1ccc(/C=N/Nc2nc(-c3ccccc3)cc(-c3ccc(Br)cc3)n2)c(O)c1,-7.4
19,O=[N+]([O-])c1cc(-n2ncnc2-c2cccc(Cl)c2)ccc1F,14.6
20,O=C(N/N=C/c1cc([N+](=O)[O-])ccc1O)Nc1ccccc1,-6.2
21,CCOC(=O)c1ccc(Nc2cc(-c3ccccc3)ncn2)cc1,-3.5
22,COc1cccc(OCCOc2ccc(/C=C3/SC(=S)NC3=O)cc2)c1,5.1
23,Cc1nc(NC(=O)/C=C/c2ccc(F)cc2)sc1C,-4.7

row,SMILES,displacement [%]
1,CS(=O)(=O)N(CC(=O)Nc1ccc(Cl)cc1)c1ccc(Br)cc1,3.3
2,Cn1c(SCC(=O)N/N=C/c2ccc(O)cc2O)nc2ccccc21,-11.7
3,CN(C)Cc1c(O)ccc2c(=O)c(-c3ccc(Cl)cc3)coc12,-8.9
4,CCCCCC(=O)NNC(=O)c1ccc(F)cc1,0.5
5,CCOc1cccc(C2C(C(=O)Nc3ccccc3OC)=C(C)NC3=C2C(=O)CCC3)c1 (centres undefined),7.6
6,O=C(Nc1ccc(S(=O)(=O)N2CCCCCC2)cc1)c1cccc([N+](=O)[O-])c1,7.7
7,CCCOc1cccc(C(=O)Nc2ccc(NC(=O)c3ccc(Cl)cc3Cl)cc2)c1,7.5
8,CC(=O)NS(=O)(=O)c1ccc(NC(=O)CCC2CCCC2)cc1,-0.4
9,CCOC(=O)C1CCN(C(=O)Nc2ccc(Cl)c(Cl)c2)CC1,9.4
10,O=C(NCCC(c1ccccc1)c1ccccc1)c1cc2ccccc2oc1=O,-8.4
11,COc1cccc(C2/C(=C(/O)c3ccccc3)C(=O)C(=O)N2c2nc3ccccc3s2)c1 (centres undefined),4.5
12,O=C(NCCN1CCOCC1)c1cc(-c2ccccc2)nc2ccccc12,-1
13,COc1ccc(N(CC(N)=O)S(C)(=O)=O)c(OC)c1,-6.1
14,CCC(/C=C1\N=C(c2cccc(F)c2)OC1=O)=C\c1ccccc1,-10.7
15,Cc1ccc(/C=C2\SC(=S)N(CCC(=O)NNC(=O)c3ccccc3O)C2=O)cc1,10
16,CCOc1ccc(NC(=O)C2=C(C)NC(=S)NC2c2ccc(Br)cc2)cc1 (centres undefined),5.7
17,COc1ccccc1NC(=O)C1=C(C)NC(=O)NC1c1ccc([N+](=O)[O-])cc1 (centres undefined),-2.8
18,CSc1ccc(/C=N/NC(=O)c2c[nH]c3ccccc23)cc1,-0.8
19,O=C1CSC2(O1)C1CC3CC(C1)CC2C3 (centres undefined),16.9
20,CCOC(=O)c1ccc(NC(=O)C2CN(S(=O)(=O)c3ccccc3)CCN2S(=O)(=O)c2ccccc2)cc1 (centres undefined),11.2
21,Cc1ccc(C(=O)CSc2nnnn2-c2ccccc2)c(C)c1,-10.4
22,O=C1/C(=C/c2ccccc2)SC(=S)N1c1ccccc1Br,1.4
23,CCOC(=O)C1=C(N)OC2=C(C(=O)CCC2)C1c1cc(C)ccc1C (centres undefined),4.5

row,SMILES,displacement [%]
1,COc1cc2nc(-c3ccc(OC(C)=O)cc3)oc(=O)c2cc1OC,-3.2
2,C=CC(=O)Oc1ccc(N2C(=O)C3CC=C(C)CC3C2=O)cc1 (centres undefined),4.1
3,CNc1ccc2[nH]nc3c2c1C(=O)c1ccccc1-3,173
4,COc1ccc(C(=O)N2CCN(CCCc3ccccc3)CC2)cc1,-4.6
5,Cc1ccc(-c2csc(N)n2)c(C)c1,-5
6,COc1ccc(/C=N/NC(=O)COc2ccccc2Br)cc1,2.6
7,N#CCC(=O)N/N=C/c1cc([N+](=O)[O-])ccc1N1CCCC1,-11.5
8,O=C(CN(c1ccc(Cl)c(C(F)(F)F)c1)S(=O)(=O)c1ccccc1)N1CCOCC1,14.1
9,CCOc1ccccc1NC(=O)c1c(NC(=O)c2ccco2)sc2c1CCCC2,-3.8
10,CCOC(=O)C1=NN(C(=O)c2cccc(Br)c2)C(O)(C(C)(C)C)C1 (centres undefined),-20.6
11,C=CCNC(=S)Nc1ccc(C(=O)OCC)cc1,-3
12,CCc1cc(C)cc(OCCOc2ccc(C=C3C(=O)NC(=S)NC3=O)cc2)c1,-35.9
13,CCn1c(C(O)c2cccc(OC)c2)nc2ccccc21 (centres undefined),-1
14,COc1cc(C(=O)N/N=C/C2CC=CCC2)ccc1O (centres undefined),19.4
15,COc1ccc(OC)c(NC(=O)c2cccc(Cl)c2Cl)c1,1.8
16,O=C(c1ccncc1)N1CCN(C(=O)c2cccc(Cl)c2)CC1,-22
17,COc1ccc(C(NC(=O)c2cccc(OC)c2)NC(=O)c2cccc(OC)c2)cc1,10.3
18,COc1ccc(/C=N/Nc2nc(-c3ccc(C)cc3)nc3ccccc23)cc1,10.1
19,Cc1cccc(C)c1NS(=O)(=O)c1ccccc1,2.3
20,CC(C)OC(=O)c1c(-c2ccc(Cl)cc2)csc1N,5.1
21,NC(N)=NS(=O)(=O)c1ccc(NC(=S)NC(=O)c2ccc(F)cc2)cc1,10.6
22,COc1ccc(S(=O)(=O)Nc2ccc([N+](=O)[O-])cc2OC)cc1,-0.1
23,C=C(C)CNC(=S)NNC(=O)c1cccc(C)c1[N+](=O)[O-],-14.4
